Source: paper PMC4428384, “Differences in conformational dynamics within the Hsp90 chaperone family reveal mechanistic insights” (Frontiers in Molecular Biosciences, 2014)

What was measured:
[1] = target: the molecule itself; experiment: FRET or BRET; subunit exchange, dimer to monomers: ATTO 488 and ATTO 550 labeled proteins combined (400 nM each), rapidly mixed 1:1 with unlabeled protein (20 μM) in a stopped-flow device, 480 nm excitation, 590 nm cut-off filter; no nucleotide (apo)
[2] = target: the molecule itself; experiment: FRET or BRET; subunit exchange as in a1, in the presence of ATP
[3] = target: the molecule itself; experiment: FRET or BRET; subunit exchange as in a1, in the presence of ADP

B1: EcHtpG-E58C, labeled with ATTO 488 or ATTO 550 (natural protein)
chain: not shown
modifications: ATTO 488 maleimide or ATTO 550 maleimide on the single cysteine (E58C)
notes: Escherichia coli HtpG, the Hsp90 homolog; single cysteine variant E58C; The rows are protomer with protomer: donor- and acceptor-labeled copies in one dimer
For B1, the subunit exchange rate [1] was 0.0028 s⁻¹, the subunit exchange rate [2] was 0.0035 s⁻¹ and the subunit exchange rate [3] was 0.0036 s⁻¹.
